Test results published in the supplement of paper PMC8728848.
The other results are listed elsewhere or left out.

What was measured:
Experiment in all cases: glycan array binding signal (z-score within array); higher = stronger binding
Conditions in all cases: glycan notation: IUPAC condensed, linker removed
[1] = molecular target: Neu5Ac(a2-3)Gal(b1-4)GlcNAc(b1-3)Gal(b1-4)[Fuc(a1-3)]GlcNAc
In short: (§1)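 Negative Z-scores can be read as non-binding. The Z-score is calculated within each array and then averaged across arrays of one protein sequence at different concentrations or buffers and across linkers. Arrays, 3228 in all, were curated from the Consortium for Functional Glycomics database and kept only where the protein sequence was available.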

[2] = molecular target: Neu5Ac(a2-3)Gal(b1-4)GlcNAc(b1-3)GalNAc
In short: as §1

[3] = molecular target: Neu5Ac(a2-3)Gal(b1-4)GlcNAc(b1-3)[Neu5Ac(a2-3)Gal(b1-4)GlcNAc(b1-6)]GalNAc
In short: as §1

[4] = molecular target: Neu5Ac(a2-3)Gal(b1-4)GlcNAc(b1-6)GalNAc
In short: as §1

[5] = molecular target: Neu5Ac(a2-3)Gal(b1-4)GlcNAc(b1-6)[Gal(b1-3)]GalNAc
In short: as §1

[6] = molecular target: Neu5Ac(a2-3)Gal(b1-4)GlcNAc(b1-6)[Neu5Ac(a2-3)Gal(b1-3)]GalNAc
In short: as §1

[7] = molecular target: Neu5Ac(a2-3)Gal(b1-4)GlcNAc6S
In short: as §1

[8] = molecular target: Neu5Ac(a2-3)Gal(b1-4)[Fuc(a1-3)]GlcNAc
In short: as §1

[9] = molecular target: Neu5Ac(a2-3)Gal(b1-4)[Fuc(a1-3)]GlcNAc(b1-2)Man
In short: as §1

[10] = molecular target: Neu5Ac(a2-3)Gal(b1-4)[Fuc(a1-3)]GlcNAc(b1-3)Gal
In short: as §1

[11] = molecular target: Neu5Ac(a2-3)Gal(b1-4)[Fuc(a1-3)]GlcNAc(b1-3)Gal(b1-4)GlcNAc
In short: as §1

[12] = molecular target: Neu5Ac(a2-3)Gal(b1-4)[Fuc(a1-3)]GlcNAc(b1-3)Gal(b1-4)[Fuc(a1-3)]GlcNAc(b1-3)Gal(b1-4)[Fuc(a1-3)]GlcNAc
In short: as §1

[13] = molecular target: Neu5Ac(a2-3)Gal(b1-4)[Fuc(a1-3)]GlcNAc(b1-3)GalNAc
In short: as §1

[14] = molecular target: Neu5Ac(a2-3)Gal(b1-4)[Fuc(a1-3)]GlcNAc(b1-6)[Gal(b1-3)]GalNAc
In short: as §1

[15] = molecular target: Neu5Ac(a2-3)Gal(b1-4)[Fuc(a1-3)]GlcNAc(b1-6)[Neu5Ac(a2-3)Gal(b1-3)]GalNAc
In short: as §1

[16] = molecular target: Neu5Ac(a2-3)Gal(b1-4)[Fuc(a1-3)]GlcNAc6S
In short: as §1

[17] = molecular target: Neu5Ac(a2-3)Gal6S(b1-4)GlcNAc
In short: as §1

[18] = molecular target: Neu5Ac(a2-3)Gal6S(b1-4)[Fuc(a1-3)]GlcNAc
In short: as §1

[19] = molecular target: Neu5Ac(a2-3)GalNAc
In short: as §1

[20] = molecular target: Neu5Ac(a2-3)GalNAc(b1-4)GlcNAc
In short: as §1

[21] = molecular target: Neu5Ac(a2-3)[GalNAc(b1-4)]Gal(b1-4)Glc
In short: as §1

[22] = molecular target: Neu5Ac(a2-3)[GalNAc(b1-4)]Gal(b1-4)GlcNAc
In short: as §1

[23] = molecular target: Neu5Ac(a2-3)[GalNAc(b1-4)]Gal(b1-4)GlcNAc(b1-3)GalNAc
In short: as §1

[24] = molecular target: Neu5Ac(a2-3)[Neu5Ac(a2-6)]GalNAc
In short: as §1

[25] = molecular target: Neu5Ac(a2-6)Gal
In short: as §1

[26] = molecular target: Neu5Ac(a2-6)Gal(b1-3)GlcNAc(b1-3)[Gal(b1-4)GlcNAc(b1-6)]Gal(b1-4)Glc
In short: as §1

[27] = molecular target: Neu5Ac(a2-6)Gal(b1-4)Glc
In short: as §1

[28] = molecular target: Neu5Ac(a2-6)Gal(b1-4)GlcNAc
In short: as §1

[29] = molecular target: Neu5Ac(a2-6)Gal(b1-4)GlcNAc(b1-2)Man
In short: as §1

[30] = molecular target: Neu5Ac(a2-6)Gal(b1-4)GlcNAc(b1-2)Man(a1-3)Man(b1-4)GlcNAc(b1-4)GlcNAc
In short: as §1

[31] = molecular target: Neu5Ac(a2-6)Gal(b1-4)GlcNAc(b1-2)Man(a1-3)[Gal(b1-4)GlcNAc(b1-2)Man(a1-6)]Man(b1-4)GlcNAc(b1-4)GlcNAc
In short: as §1

[32] = molecular target: Neu5Ac(a2-6)Gal(b1-4)GlcNAc(b1-2)Man(a1-3)[GlcNAc(b1-2)Man(a1-6)]Man(b1-4)GlcNAc(b1-4)GlcNAc
In short: as §1

[33] = molecular target: Neu5Ac(a2-6)Gal(b1-4)GlcNAc(b1-2)Man(a1-3)[GlcNAc(b1-2)Man(b1-4)GlcNAc(b1-2)Man(a1-6)]Man(b1-4)GlcNAc(b1-4)GlcNAc
In short: as §1

[34] = molecular target: Neu5Ac(a2-6)Gal(b1-4)GlcNAc(b1-2)Man(a1-3)[GlcNAc(b1-4)][Neu5Ac(a2-6)Gal(b1-4)GlcNAc(b1-2)Man(a1-6)]Man(b1-4)GlcNAc(b1-4)GlcNAc
In short: as §1

[35] = molecular target: Neu5Ac(a2-6)Gal(b1-4)GlcNAc(b1-2)Man(a1-3)[Man(a1-6)]Man(b1-4)GlcNAc(b1-4)GlcNAc
In short: as §1

[36] = molecular target: Neu5Ac(a2-6)Gal(b1-4)GlcNAc(b1-2)Man(a1-3)[Neu5Ac(a2-3)Gal(b1-4)GlcNAc(b1-2)Man(a1-6)]Man(b1-4)GlcNAc(b1-4)GlcNAc
In short: as §1

[37] = molecular target: Neu5Ac(a2-6)Gal(b1-4)GlcNAc(b1-2)Man(a1-3)[Neu5Ac(a2-6)Gal(b1-4)GlcNAc(b1-2)Man(a1-6)]Man(b1-4)GlcNAc(b1-4)GlcNAc
In short: as §1

[38] = molecular target: Neu5Ac(a2-6)Gal(b1-4)GlcNAc(b1-2)Man(a1-3)[Neu5Ac(a2-6)Gal(b1-4)GlcNAc(b1-2)Man(a1-6)]Man(b1-4)GlcNAc(b1-4)[Fuc(a1-6)]GlcNAc
In short: as §1

[39] = molecular target: Neu5Ac(a2-6)Gal(b1-4)GlcNAc(b1-2)Man(a1-6)Man(b1-4)GlcNAc(b1-4)GlcNAc
In short: as §1

[40] = molecular target: Neu5Ac(a2-6)Gal(b1-4)GlcNAc(b1-2)Man(a1-6)[Gal(b1-4)GlcNAc(b1-2)Man(a1-3)]Man(b1-4)GlcNAc(b1-4)GlcNAc
In short: as §1

[41] = molecular target: Neu5Ac(a2-6)Gal(b1-4)GlcNAc(b1-2)Man(a1-6)[GlcNAc(b1-2)Man(a1-3)]Man(b1-4)GlcNAc(b1-4)GlcNAc
In short: as §1

[42] = molecular target: Neu5Ac(a2-6)Gal(b1-4)GlcNAc(b1-2)Man(a1-6)[Man(a1-3)]Man(b1-4)GlcNAc(b1-4)GlcNAc
In short: as §1

[43] = molecular target: Neu5Ac(a2-6)Gal(b1-4)GlcNAc(b1-2)[Neu5Ac(a2-6)Gal(b1-4)GlcNAc(b1-4)]Man(a1-3)[GlcNAc(b1-4)][Neu5Ac(a2-6)Gal(b1-4)GlcNAc(b1-2)[Neu5Ac(a2-6)Gal(b1-4)GlcNAc(b1-6)]Man(a1-6)]Man(b1-4)GlcNAc(b1-4)GlcNAc
In short: as §1

[44] = molecular target: Neu5Ac(a2-6)Gal(b1-4)GlcNAc(b1-2)[Neu5Ac(a2-6)Gal(b1-4)GlcNAc(b1-4)]Man(a1-3)[GlcNAc(b1-4)][Neu5Ac(a2-6)Gal(b1-4)GlcNAc(b1-4)Man(a1-6)]Man(b1-4)GlcNAc(b1-4)GlcNAc
In short: as §1

[45] = molecular target: Neu5Ac(a2-6)Gal(b1-4)GlcNAc(b1-2)[Neu5Ac(a2-6)Gal(b1-4)GlcNAc(b1-6)]Man(a1-6)[Neu5Ac(a2-6)Gal(b1-4)GlcNAc(b1-2)Man(a1-3)][GlcNAc(b1-4)]Man(b1-4)GlcNAc(b1-4)GlcNAc
In short: as §1

B1: AAL (Agrocybe aegerita), Q6WY08 (protein)
chain: MQGVNIYNISAGTSVDLAAPVTTGDIVTFFSSALNLNAGAGNPNNTTLNLFAENGAYLLHIAFRLQENVIIFNSRQPDGPWLVEQRVSDVANQFAGIDGKAMVTVFDHGDKYQVVINEKTVIQYTKQISGLTLSLSYNATEETSIFSTVVEAVTYTGLALEHHHHHH
Q: Which results are given for B1?
A: glycan array binding signal (z-score) [1]: -0.131; glycan array binding signal (z-score) [2]: 0.017; glycan array binding signal (z-score) [3]: -0.15; glycan array binding signal (z-score) [4]: -0.159; glycan array binding signal (z-score) [5]: -0.141; glycan array binding signal (z-score) [6]: 0.279; glycan array binding signal (z-score) [7]: -0.117; glycan array binding signal (z-score) [8]: -0.154; glycan array binding signal (z-score) [9]: -0.147; glycan array binding signal (z-score) [10]: -0.142; glycan array binding signal (z-score) [11]: -0.145; glycan array binding signal (z-score) [12]: -0.158; glycan array binding signal (z-score) [13]: -0.108; glycan array binding signal (z-score) [14]: -0.143; glycan array binding signal (z-score) [15]: -0.087; glycan array binding signal (z-score) [16]: -0.148; glycan array binding signal (z-score) [17]: -0.156; glycan array binding signal (z-score) [18]: -0.161; glycan array binding signal (z-score) [19]: -0.143; glycan array binding signal (z-score) [20]: -0.155; glycan array binding signal (z-score) [21]: -0.153; glycan array binding signal (z-score) [22]: -0.149; glycan array binding signal (z-score) [23]: -0.153; glycan array binding signal (z-score) [24]: -0.128; glycan array binding signal (z-score) [25]: -0.15; glycan array binding signal (z-score) [26]: -0.151; glycan array binding signal (z-score) [27]: -0.148; glycan array binding signal (z-score) [28]: -0.159; glycan array binding signal (z-score) [29]: -0.1; glycan array binding signal (z-score) [30]: -0.154; glycan array binding signal (z-score) [31]: -0.144; glycan array binding signal (z-score) [32]: -0.154; glycan array binding signal (z-score) [33]: 1.25; glycan array binding signal (z-score) [34]: -0.168; glycan array binding signal (z-score) [35]: -0.148; glycan array binding signal (z-score) [36]: -0.098; glycan array binding signal (z-score) [37]: -0.134; glycan array binding signal (z-score) [38]: -0.131; glycan array binding signal (z-score) [39]: -0.133; glycan array binding signal (z-score) [40]: -0.151; glycan array binding signal (z-score) [41]: -0.162; glycan array binding signal (z-score) [42]: -0.148; glycan array binding signal (z-score) [43]: -0.117; glycan array binding signal (z-score) [44]: -0.148; glycan array binding signal (z-score) [45]: -0.143
